This is an account of results in the supplement of paper PMC8728848.

Holding throughout (assay): glycan array binding signal (z-score within array); higher = stronger binding
What all share (settings): glycan notation: IUPAC condensed, linker removed

For experiment [1], the target named is Neu5Ac(a2-3)Gal(b1-4)[Fuc(a1-3)]GlcNAc(b1-6)[Neu5Ac(a2-3)Gal(b1-3)]GalNAc. Put shortly:
(§1)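 Glycan array data were curated from 3228 arrays in the Consortium for Functional Glycomics database and kept only where the protein sequence was available. Glycan names were converted to IUPAC-condensed notation, and columns mapping to the same glycan were averaged. The binding signal is a within-array Z-score, averaged across arrays of the same protein sequence at different concentrations or buffers and across linkers. Negative Z-scores can be read as non-binding.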

In experiment [2] the target is Neu5Ac(a2-3)Gal(b1-4)[Fuc(a1-3)]GlcNAc6S. In a few lines:
as §1

For experiment [3], the target named is Neu5Ac(a2-3)Gal6S(b1-4)GlcNAc. In a few lines:
as §1

For experiment [4], the target named is Neu5Ac(a2-3)Gal6S(b1-4)[Fuc(a1-3)]GlcNAc. Put shortly:
as §1

A further experiment concerns the target Neu5Ac(a2-3)GalNAc. In a few lines: as §1
Experiment [5] has as its target Neu5Ac(a2-3)GalNAc(b1-4)GlcNAc. Put shortly: as §1
Experiment [6] concerns the target Neu5Ac(a2-3)[GalNAc(b1-4)]Gal(b1-4)Glc. Put shortly: as §1
The target in experiment [7] is Neu5Ac(a2-3)[GalNAc(b1-4)]Gal(b1-4)GlcNAc. Put shortly:
as §1

For experiment [8], the target named is Neu5Ac(a2-3)[GalNAc(b1-4)]Gal(b1-4)GlcNAc(b1-3)GalNAc. Put shortly:
as §1

In experiment [9] the target is Neu5Ac(a2-3)[Neu5Ac(a2-6)]GalNAc. In a few lines:
as §1

The target of a further experiment is Neu5Ac(a2-6)Gal. In a few lines: as §1
Experiment [10] has as its target Neu5Ac(a2-6)Gal(b1-3)GlcNAc(b1-3)[Gal(b1-4)GlcNAc(b1-6)]Gal(b1-4)Glc. In a few lines:
as §1

A further experiment concerns the target Neu5Ac(a2-6)Gal(b1-4)Glc. In a few lines: as §1
Experiment [11] deals with Neu5Ac(a2-6)Gal(b1-4)GlcNAc. Put shortly:
as §1

Experiment [12] addresses Neu5Ac(a2-6)Gal(b1-4)GlcNAc(b1-2)Man. Put shortly: as §1
Experiment [13] addresses Neu5Ac(a2-6)Gal(b1-4)GlcNAc(b1-2)Man(a1-3)Man(b1-4)GlcNAc(b1-4)GlcNAc. In a few lines:
as §1

The target of experiment [14] is Neu5Ac(a2-6)Gal(b1-4)GlcNAc(b1-2)Man(a1-3)[Gal(b1-4)GlcNAc(b1-2)Man(a1-6)]Man(b1-4)GlcNAc(b1-4)GlcNAc. Put shortly:
as §1

The target in experiment [15] is Neu5Ac(a2-6)Gal(b1-4)GlcNAc(b1-2)Man(a1-3)[GlcNAc(b1-2)Man(a1-6)]Man(b1-4)GlcNAc(b1-4)GlcNAc. Put shortly:
as §1

The target of experiment [16] is Neu5Ac(a2-6)Gal(b1-4)GlcNAc(b1-2)Man(a1-3)[GlcNAc(b1-4)][Neu5Ac(a2-6)Gal(b1-4)GlcNAc(b1-2)Man(a1-6)]Man(b1-4)GlcNAc(b1-4)GlcNAc. In a few lines: as §1
Experiment [17] has as its target Neu5Ac(a2-6)Gal(b1-4)GlcNAc(b1-2)Man(a1-3)[Man(a1-6)]Man(b1-4)GlcNAc(b1-4)GlcNAc. Put shortly:
as §1

Some of the results follow.

B1: NPA (Narcissus pseudonarcissus), C0HM45 (protein)
chain: DNILYSGETLSPGEFLNNGRYVFIMQEDCNLVLYDVDKPIWATNTGGLDRRCHLSMQSDGNLVVYSPRNNPIWASNTGGENGNYVCVLQKDRNVVIYGTARWATGTNIH
For B1, the “glycan array binding signal (z-score)” value was -0.105 in experiment [1]; -0.161 in experiment [2]; -0.166 in [3]; -0.158 in experiment [4]; -0.143 with Neu5Ac(a2-3)GalNAc; -0.158 in [5]. The “glycan array binding signal (z-score)” value in [6] is -0.159; in experiment [7] it was -0.154; in [8] it was -0.081; in experiment [9], -0.159; with Neu5Ac(a2-6)Gal it was -0.159; in experiment [10] it was -0.144. For the same molecule, the “glycan array binding signal (z-score)” value is -0.145 in the experiment with Neu5Ac(a2-6)Gal(b1-4)Glc; -0.15 in experiment [11]; -0.149 in experiment [12]; -0.137 in experiment [13]; -0.147 in experiment [14]; -0.151 in experiment [15]. Moreover, the results for the “glycan array binding signal (z-score)” value in experiment [16] and in experiment [17] were -0.156 and 0.006, respectively.
